From article PMC6919601, “Identification of Plasmodium dipeptidyl aminopeptidase allosteric inhibitors by high throughput screening” (PLoS ONE, 2019) come the findings set out here.

Out of some 110,000 compounds screened, about 230 (0.21%) showed an effect of 50% or more. The list shows a part of the results. *1 amine or outer side, *2 acyl side, *3 side chain or, on linkers, in order; H or OH if unused. Where a SMILES comes first, the peptide text is derived from it. Where no end group is shown, it is not given here. [ ]: non-standard residue; d: D form. The star is where a group is joined. Tyr(3,5-I2) = N[C@@H](Cc1cc(I)c(O)c(I)c1)C(=O)O; Morpholide = C1CN(*)CCO1; Cbz = O=C(OCc1ccccc1)*; CO = O=C([*:1])[*:2]
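Note: 30 min substrate incubation versus DMSO and 10 µM JCP410 controls.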

DPAP1, sequence (Q8IIJ9 whole entry, looked up): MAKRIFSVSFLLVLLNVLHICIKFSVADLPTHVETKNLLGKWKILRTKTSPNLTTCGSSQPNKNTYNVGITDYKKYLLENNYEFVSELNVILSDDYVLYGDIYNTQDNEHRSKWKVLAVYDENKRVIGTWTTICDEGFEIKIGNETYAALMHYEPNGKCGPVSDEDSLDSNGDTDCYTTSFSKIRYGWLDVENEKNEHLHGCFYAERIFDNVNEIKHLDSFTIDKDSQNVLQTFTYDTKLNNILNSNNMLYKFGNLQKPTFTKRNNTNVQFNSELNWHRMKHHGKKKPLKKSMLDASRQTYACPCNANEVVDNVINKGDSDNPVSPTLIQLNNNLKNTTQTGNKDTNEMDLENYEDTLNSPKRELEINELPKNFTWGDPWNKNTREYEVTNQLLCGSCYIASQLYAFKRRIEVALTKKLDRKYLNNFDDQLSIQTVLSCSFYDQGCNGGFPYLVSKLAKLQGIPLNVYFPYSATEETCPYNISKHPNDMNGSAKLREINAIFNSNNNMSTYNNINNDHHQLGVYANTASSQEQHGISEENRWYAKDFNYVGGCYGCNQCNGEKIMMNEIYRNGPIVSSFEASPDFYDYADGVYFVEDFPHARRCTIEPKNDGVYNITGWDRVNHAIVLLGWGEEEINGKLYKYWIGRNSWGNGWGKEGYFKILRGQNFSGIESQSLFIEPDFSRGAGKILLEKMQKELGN

The experiment has as its target DPAP1 (Plasmodium falciparum, UniProt Q8IIJ9). Briefly: primary screen, percent inhibition; read by cleavage of a fluorogenic dipeptide substrate; higher = more effect of the substance. The arrangement: species or system P. falciparum D10 trophozoite lysates; single well. Here is the method:
HTS was performed in black 384-well plates. The first and last two columns of each plate contained our negative (DMSO) and positive (10 μM JCP410) controls, and the 20 central columns the test compounds at 10 μM. Compounds were first diluted 50-fold into assay buffer (50 mM sodium acetate, 5 mM MgCl2, 10 mM β-mercaptoethanol, and 0.1% CHAPS, pH 5.5) from a 10 mM DMSO stock plates. One microliter of this 200 μM intermediate stock plate was dispensed into the assay plate. […] After 30 min, the reaction was quenched with 20 μL of 0.5 M acetic acid, and the fluorescent intensity measured at 523 nm (λex = 492 nm) using an Analyst HT multimode plate reader (Molecular Devices).
Regarding `CCC(C)C(NC(=O)C(C)NC(=O)CNC(=O)CNC(=O)OCc1ccccc1)C(N)=O` (stereo not shown) (Cbz-GGAI-NH2; configuration not given here), the “% Inhibition @ 10 uM” value was -1.93%.
Next, `CSCC[C@H](NC(=O)[C@@H](NC(=O)[C@H](Cc1cc(I)c(O)c(I)c1)NC(=O)N1CCOCC1)C(C)C)C(=O)N[C@@H](Cc1ccccc1)C(=O)O` ({Morpholide-CO}-[Tyr(3,5-I2)]VMF-OH): -4.72%; `CSCC[C@H](NC(=O)[C@@H](NC(=O)[C@H](CCCCCN)NC(=O)[C@H](CCC(N)=O)NC(=O)[C@@H]1CCCN1C(=O)[C@@H]1CCCN1)C(C)C)C(=O)N[C@@H](Cc1ccccc1)C(=O)O` (HELM PEPTIDE1{P.P.Q.[NCCCCC[C@H](N[*:1])C(=O)[*:2]].V.M.F}$$$$V2.0): -3.04%; Ac-PPQRVMP: -0.778%.
Next, Ac-PPQRVMF: -7.36%; `CSCC[C@H](NC(=O)[C@@H](NC(=O)[C@H](Cc1cc(I)c(O)c(I)c1)NC(C)=O)C(C)C)C(=O)N[C@@H](Cc1ccccc1)C(=O)O` (HELM PEPTIDE1{[ac].[O=C([C@H](Cc1cc(I)c(O)c(I)c1)N[*:1])[*:2]].V.M.F}$$$$V2.0): -3.04%.
For `CSCC[C@H](NC(=O)[C@@H](NC(=O)[C@H](Cc1cc(I)c(O)c(I)c1)NC(=O)[C@H](CCC(N)=O)NC(=O)[C@@H]1CCCN1C(=O)[C@@H]1CCCN1)C(C)C)C(=O)N[C@@H](Cc1ccccc1)C(=O)O` (HELM PEPTIDE1{P.P.Q.[O=C([C@H](Cc1cc(I)c(O)c(I)c1)N[*:1])[*:2]].V.M.F}$$$$V2.0) the value was -3.04%.
